# Over roughly 16,000 sequences, “Z-score” has its median near -0.37; the highest 2% begin near 3.2. This is one part of the list.
# Test system: RBM10 RRM1-ZnF (GST-tagged construct)
# Test: RNAcompete 7-mer binding Z-score; higher = stronger binding preference
# Description: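 RNAcompete: 20 pmol GST-tagged RBM10 RNA-binding constructs were incubated with a designed RNA pool of about 241,000 sequences up to 41 nt (1.5 nmol) on glutathione beads for 30 min at 4 °C and washed. Bound RNAs were identified by microarray hybridisation. Each RNA 7-mer is scored by a one-sided Z-score of its enrichment, computed over probes that contain the 7-mer within longer pool sequences.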
row,Sequence,RNAcompete 7-mer binding Z-score
1,UCGACAC,-0.565
2,UACAAAC,-0.568
3,UCAAAAA,-0.561
4,UGGAUCA,0.641
5,GGGCCCC,0.443
6,CUUAGCU,-0.652
7,CCUGGAU,-0.487
8,GGCUUUC,-0.513
9,UACGUGG,1
10,GUUACUC,-0.548
11,UCUUAUG,-0.714
12,AUGUCCG,-0.626
13,CAGAGUU,-0.168
14,UGCGUAU,-0.363
15,AAUAUAG,0.0235
16,GCCCAGG,0.179
17,UAUUACA,-0.516
18,GAAAUCG,0.03
19,UGAUCCC,-0.503
20,GAGCCAA,-0.363
21,CACACGA,-0.539
22,AACAUGG,1.13
23,UAUGAUC,-0.516
24,CGGGCCA,-0.194
25,GGUGGAU,2.75

row,Sequence,RNAcompete 7-mer binding Z-score
1,CUGGAUC,-0.311
2,ACCAUCU,-0.841
3,GACAAAC,-0.558
4,CACAUCC,-0.681
5,CAUGACA,-0.412
6,AAACAAA,-0.204
7,UUAUCGA,-0.223
8,UCCGCUA,-0.691
9,AAUCUUC,-0.743
10,AAAGAUG,0.761
11,GGGUGGA,4.53
12,GAUCUCG,-0.707
13,UCUAAUU,-0.818
14,GAAUUGG,2.41
15,AUCAAUC,-0.561
16,CUAUGUU,-0.513
17,CGCCAUC,-0.607
18,CAAUACU,-0.688
19,CGGAAUU,0.439
20,AGUACCU,-0.694
21,CGUCUGU,-0.558
22,AGGACCU,-0.571
23,CGUUCAC,-0.578
24,GCGUGGA,2.44
25,GCUGUAA,-0.327

row,Sequence,RNAcompete 7-mer binding Z-score
1,GGGAUUA,2.55
2,GACAUGG,2.42
3,AUCGUAC,-0.386
4,UCGGUGA,0.452
5,CACAAUC,-0.938
6,AAGGGCU,1.62
7,AACAUCG,-0.415
8,AUAAACG,-0.269
9,CAAAGUG,0.205
10,GGGAUGU,3.21
11,CCCUCUC,-0.659
12,CAGCGGA,0.927
13,GAGGUUU,1.04
14,AUUUUCC,-0.87
15,CGGCGAG,0.979
16,AGACAUA,-0.197
17,GGAUAUC,0.794
18,CGUCACA,-0.21
19,GGUACGC,0.836
20,CAGUCAU,-0.685
21,UAGUACU,-0.34
22,ACUGGGG,1.89
23,UAGCAAU,-0.272
24,UCUUCGG,-0.477
25,GCAUCCA,-0.535

row,Sequence,RNAcompete 7-mer binding Z-score
1,CUCGAUU,-0.75
2,GCUUUUG,-0.639
3,GCGUCUC,-0.665
4,GCGACUA,-0.288
5,AGAUGUG,0.936
6,UAGAUAC,-0.422
7,CUGAGUA,-0.366
8,GUAGCGA,0.683
9,CGCCCUG,-0.292
10,GAAGUUC,-0.353
11,AAGUCCA,-0.565
12,CUAAUGG,0.306
13,AACACUC,-0.672
14,UCAGGCG,0.261
15,UAGGGCA,1.93
16,GGGUCGG,2.28
17,GCUCGGA,0.111
18,CUCAGCG,-0.36
19,UUUCCCA,-0.652
20,UGCGAAG,0.218
21,UCGGUAG,0.42
22,UCUCUGC,-0.811
23,UGGCCUG,-0.376
24,GUGACUC,-0.246
25,UCCAUGC,-0.623

row,Sequence,RNAcompete 7-mer binding Z-score
1,GGUGUUA,1.13
2,CUUAGUA,-0.61
3,UACCCUG,-0.409
4,GCAAGAU,-0.145
5,ACUUGGU,-0.103
6,ACCAUAU,-0.776
7,GUCAUGU,-0.175
8,AGAGACG,0.205
9,UGUAUCC,-0.711
10,GUCCGGA,0.0625
11,CAAUAAG,-0.285
12,CAGGCAC,0.095
13,GCUACUA,-0.454
14,GACCCCG,-0.448
15,GUUUUUU,-0.292
16,GUGAAUC,0.228
17,AAUCUGC,-0.902
18,GUCCACG,-0.266
19,UCUGACU,-0.655
20,CCUGUCA,-0.678
21,UUGUCCU,-0.668
22,GUUGCCG,0.0105
23,GGCAAUU,-0.0252
24,GGCCACA,-0.162
25,CGACCCU,-0.539

row,Sequence,RNAcompete 7-mer binding Z-score
1,UAGGCUC,-0.243
2,UCUCCAC,-0.763
3,UGGAAUG,2.39
4,UAACAGG,1.03
5,AUGGUGG,3.82
6,GCGCCAC,-0.21
7,AACAAAU,-0.389
8,GAAACUU,-0.681
9,GUUAAAA,-0.0902
10,CGCAAUU,-0.789
11,CCUGAGG,0.339
12,GGCAUCG,0.475
13,AAGGUGU,2.55
14,UCGGAGC,0.0138
15,AGUGAAC,0.134
16,AGCCGAU,-0.6
17,UAGGACC,0.391
18,AUUUCGG,-0.279
19,GGGUCUA,0.628
20,AUCCGUC,-0.766
21,GUAAUUG,0.465
22,CGGCGAC,-0.0642
23,CGGCAGA,0.339
24,GUUGUUU,-0.00896
25,AAUGAAC,-0.269

row,Sequence,RNAcompete 7-mer binding Z-score
1,ACAUGAU,-0.259
2,AUGCGGA,0.962
3,AGAUCAG,0.261
4,UAACCUA,-0.824
5,GACAAGA,0.176
6,AGAUGUA,0.235
7,ACUGAAU,-0.5
8,GCUAUUA,-0.259
9,AUUCACA,-0.662
10,GGAAUAA,1.2
11,AGUUGGA,1.87
12,AACUGAU,-0.201
13,GCAUGUC,-0.35
14,UAUCCUA,-0.902
15,UCCGAGC,-0.72
16,AGCUUGU,-0.704
17,CAUGCAC,-0.548
18,CUCUGUA,-0.821
19,CGAUUUG,-0.584
20,AGGGCAA,1.73
21,CGUAGUU,-0.483
22,UACAUUA,-0.668
23,AUACCUC,-0.717
24,GUAGCCG,-0.0869
25,AUAGCUU,-0.714

row,Sequence,RNAcompete 7-mer binding Z-score
1,UUGUCAU,-0.759
2,UGGUUCA,-0.0479
3,CUGUUGU,-0.464
4,GGGUACU,1.92
5,GGAGUAC,1.24
6,AUAACAC,-0.477
7,GGAAAAU,1.33
8,CGCAGUA,-0.194
9,UCUUCAC,-0.811
10,UGCUACG,-0.448
11,AAUUUCU,-0.857
12,GCCGCGU,-0.584
13,ACUAAGU,-0.412
14,GCACCUA,-0.552
15,UGAUAAC,-0.386
16,GUACACC,-0.318
17,GUCAACU,-0.405
18,GCAAGCU,-0.542
19,UGGGUCU,1.12
20,UCGAAUA,-0.558
21,AGCAGCG,0.735
22,CAAGGGG,2.79
23,CUCCUCA,-0.675
24,ACCGCUU,-0.948
25,UUCUUAG,-0.698

row,Sequence,RNAcompete 7-mer binding Z-score
1,UUCCGGG,0.397
2,UCAUCCU,-0.782
3,GCGCUGA,-0.184
4,AAGGUUA,2.95
5,GUGGGGA,4.7
6,AGGUUUC,0.03
7,GUAGAGU,1.18
8,UCAAUCG,-0.655
9,UGAAUGA,0.0528
10,UAGUCAC,-0.519
11,GCCAGGC,-0.0837
12,GCAUAGA,0.00404
13,AGUAGCU,-0.451
14,CCUGCUG,-0.483
15,GAUACUG,0.0333
16,CGAGCCA,-0.305
17,GCCAUAG,-0.415
18,UGCGGUU,0.573
19,ACAGAAU,-0.318
20,GCCGCCU,-0.701
21,CUCAUUA,-0.831
22,AUGGCAC,0.218
23,ACCGCCG,-0.626
24,AAAGCGG,1.55
25,UAAGGGU,3.44

row,Sequence,RNAcompete 7-mer binding Z-score
1,CUGCUUU,-0.912
2,UUGCAUA,-0.379
3,CAACUUU,-0.847
4,GUCCCGC,-0.334
5,CCGUGUG,-0.373
6,GGCAGGA,2.31
7,UACAGCC,-0.746
8,CACCUUA,-0.798
9,GCCGCCA,-0.418
10,UGAUACU,-0.34
11,GUUGCAC,-0.0382
12,UGCCAGC,-0.626
13,GAUAAGU,0.313
14,CGCUGAC,-0.626
15,UGGACUA,0.417
16,ACACAUC,-0.477
17,UAGCGCC,-0.574
18,ACCCGUC,-0.808
19,GCGGUCG,0.69
20,UCUAUGC,-0.805
21,ACGUCAC,-0.266
22,CUGUCGA,-0.756
23,GGUUUGA,1.07
24,ACGUUUG,-0.451
25,GCGAUCG,0.222

row,Sequence,RNAcompete 7-mer binding Z-score
1,GCACCAC,-0.165
2,AAAGGUG,3.71
3,UUCUGGC,-0.704
4,GUAGCGC,0.183
5,AUGCACA,-0.149
6,AGGGUGG,4.42
7,UGCGCGA,-0.249
8,GGAUGCA,1.79
9,UAAACAC,-0.405
10,CAGUACU,-0.587
11,AAGCGGU,1.1
12,UAUCCGU,-0.714
13,CCGGAAA,-0.142
14,UCUGAGA,-0.464
15,GCCCGAA,-0.591
16,UCGCCGG,-0.34
17,UGCUGAU,-0.139
18,ACAGCGU,-0.288
19,GACCACU,-0.571
20,CGCGAGG,0.738
21,CUAUCAG,-0.636
22,ACUUCCC,-0.899
23,CCACCCU,-0.532
24,AGAAGAU,0.459
25,ACCCGUA,-0.821

row,Sequence,RNAcompete 7-mer binding Z-score
1,GAAUUCC,-0.662
2,UGCUGAG,0.378
3,GCACACC,-0.435
4,GAAAGGC,1.7
5,GUUAGAC,0.264
6,UGUGAAA,0.082
7,CAUUUGU,-0.795
8,CGCUGCA,-0.243
9,CUACUGU,-0.694
10,UACUGAA,-0.347
11,AGUAUAC,-0.259
12,CGUCAAA,-0.279
13,ACAGACA,-0.00896
14,UUCUGGA,-0.311
15,CUGGAUG,0.53
16,GCUCUGC,-0.782
17,UAUAGCC,-0.487
18,GAAAACC,-0.594
19,AUGGAAC,1.99
20,CUUUACA,-0.776
21,UCGCGUA,-0.532
22,CUGCCCC,-0.292
23,GCUACGG,0.693
24,GUAGGCC,0.27
25,CCGUCUC,-0.688

row,Sequence,RNAcompete 7-mer binding Z-score
1,GAUGCCU,-0.675
2,ACGCCUA,-0.766
3,UCUGGGU,0.81
4,GAUCGAC,-0.457
5,CUAAAAC,-0.756
6,UGAGUAC,0.153
7,AAGCGCG,-0.0479
8,GUGUAGA,1.5
9,CAGAGUG,0.923
10,GAGGACG,1.56
11,UGUGGGA,2.87
12,UUGAUUA,-0.314
13,UGGAGUA,1.67
14,GUAGACC,0.00729
15,UUGCAUU,-0.701
16,CUGGGUC,0.751
17,UGCUCGG,-0.152
18,CAUGUUA,-0.474
19,UCGGGGG,2.83
20,ACUCACU,-0.776
21,AUGUGCG,0.758
22,CUGUGCC,-0.571
23,CGAGUAU,-0.409
24,GUAGUUU,-0.0479
25,GAUCACU,-0.581

row,Sequence,RNAcompete 7-mer binding Z-score
1,UCCAGAC,-0.688
2,GACCAAA,-0.392
3,GGGGAGU,2.84
4,CCAGCCA,-0.711
5,CUAUUGA,-0.565
6,UGGUCAG,0.722
7,GACAAAU,-0.282
8,GCGCCGC,-0.259
9,UUCCAAA,-0.792
10,CCAAUCU,-0.802
11,UAAAGGG,2.85
12,UAUAGGG,2.69
13,GUUUGGU,0.755
14,AGUUAUA,-0.295
15,UUUUUUA,-0.759
16,GAUCGCA,-0.298
17,UUACACC,-0.6
18,UCUAAUC,-0.626
19,ACGGUAU,0.985
20,CGUAGAU,-0.158
21,CCUUCGU,-0.808
22,GACUUCA,-0.6
23,GCGUGUC,-0.347
24,GGAAUGU,1.94
25,UUCUUAC,-0.763

row,Sequence,RNAcompete 7-mer binding Z-score
1,GACAACU,-0.581
2,UAGAAAU,-0.262
3,AGUGCGU,0.29
4,UUGGGCA,1.09
5,AUAAGGA,2.08
6,UCCCGAA,-0.763
7,UGGCCCA,-0.35
8,AGCGUGU,0.183
9,UUUCGAC,-0.802
10,AACGAUC,-0.607
11,CGCGAUU,-0.623
12,AUCCCCU,-0.633
13,AUCGCUA,-0.724
14,UCUGUGU,-0.633
15,CAUUAUA,-0.451
16,CAAGACC,-0.646
17,UACAUCA,-0.555

# — the supplement of paper PMC5499739
